Laboratory results: the RNAGym collection of RNA variant scans (doi:10.1073/pnas.2313332121)
Variants at the floor of the assay are shown more often than the library holds them.

B1: TPR 5TU (parent)
chain: GGAUCUUCUCGAUCUAACAAAAAAGACAAAUCUGCCACAAAGCUUGAGAGCAUCUUCGGAUGCAGAGGCGGCAGCCUUCGGUGGCGCGAUAGCGCCAACGUUCUCAACUAUGACACGCAAAACGCGUGCUCCGUUGAAUGGAGUUUAUCAUG

Variants of: B1
Test: polymerase ribozyme fitness, log enrichment relative to wild type (log ratio); higher = more active; in vitro selection for triplet polymerase activity
In short: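 Each subunit of a heterodimeric triplet polymerase ribozyme was represented by a PCR-built, transcribed mutant library that underwent triplicate single-round in vitro selection with frozen incubation at −7 °C. Extended constructs were recovered by gel excision, streptavidin-bead capture and RT-PCR, and Illumina sequencing of input and output libraries kept genotypes with ≥10 input reads and ≥1 read per output. Fitness is the logarithm of genotype enrichment relative to wild-type enrichment, from inverse-variance-weighted replicate averages, with a logarithm base of 2.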

Polymerase ribozyme fitness (log ratio), ≤ -4.2:
A39U G88U
A39U U44G G59C A115C
A39U U45A A52C A60U
A39U U45G G136C A137U
A39U U56A G88A
A39U U82C C87U C96G G117U U134A
A40C A49C G84A C93G A150U
A40C A49G A64G C85U A137G G152A
A40C A49G C87U G128C
A40C A49U C75G U78G G94C C99U
A40C A52C C54U G70U C87A A98U C105G U109G
A40C A52U C54G U55A C87G C93U
A40C A66C C103A U135A
A40C A73G A91U G94A C95U C108A U111A C125G
A40C C57G G58C C87G A106G C114U
A40C C57U A73U G83U A98U A115U A138U
A40C C57U C69A C85U C95U C125U G140A U146A
A40C C72U G86C G143U
A40C C75G C85U C87A A89G C99A G141C G143A U146G
A40C C75U C87G A106C C123A U146G U148G
A40C C79A C99U G126A U139A A147U
A40C C79U C93G G100U A147C
A40C C85A C108U G126A
A40C C85G C103A U135C
A40C C87G A147U
A40C G42C A49G G58U G83C G92A A107C G141C C149G
A40C G50A G58C C116A U144G
A40C G59U A64C G71A
A40C G74U G84U A120G A122G
A40C G86A G88A
A40C G88U C99U U139C G141A C149G
A40C U45A A97G A107U C114A U127G U134C
A40C U53C G94U C95U G140U G143C
A40C U55A A64U G86A
A40C U55A G140U U148G
A40C U61C C76U G84U C96G U109C
A40C U61G G80C C96G A107G
A40C U77C G88U C99U A115U A150C
A40G A47U G50C G65U G80C C87G U104G
A40G A49C A64C C96A A97U G136A
A40G A49G C69U U82A C103A C105A A107U C123A A137G U139G
A40G A52G A73C C95G
A40G A60G C76G C79U G86U G94A C108G
A40G A106G C116G C118G U144C
A40G A106G C118G U134G
A40G A113U U148G
A40G C54A C87U U101G U134G
A40G C54G U61A C75G G92A U144A
A40G C72G C93A U102C A110U
A40G C87G A89G
A40G G42C C54A U82G G84A A98C
A40G G46A C57G C85U C118G
A40G G46A G50C G70C C87U A138C
A40G G50U C132G
A40G G67A C72U C96A U151A
A40G G71A C131G
A40G G81C U90C C103A G117C
A40G U44G U56C G65C U90A C96U G136A
A40G U61C C87A A89G
A40G U82A G94C U134A U151A
A40G U148G
A40U A49U U53G U56A G62C C72U G84A
A40U A64G G86A C105A
A40U A64G U102A U111A U134C
A40U A66C G80A G92A A107U A110C A147U
A40U A73U C85G G86A A119C
A40U C93U G133A
A40U C95U A115G C118U
A40U C95U C99U C105A A106G A122C A138C G141A
A40U G42U C54U G86A U90G A97G G117C U146A A147C
A40U G42U U55C U61A C118U
A40U G58U A73G G92C C114U A138G G141A G152U
A40U G59A C79G G84A G140A A147U
A40U G59C C69G G81C C108U U135A
A40U G67U C69A C87A C129A
A40U G74C C85G C103G A122C G124A U144C
A40U G86U C99A C149A U151C
A40U G94C C105G A137C A138U U146A
A40U U45A G70A U77C G84A G100U U102G G140C
A40U U56A A64C A73C A89U A106G U109C U135G
A40U U56A G74C C96U C103A A138G
A40U U61A U77G C114A C132U
A40U U90G A106G
A41C A52U A73G C87U G141A
A41C A60C U90G C103A C116U C129A G143C
A41C A60G C85G G88C
A41C A91U G92U A98G
A41C A138U
A41C C43U C57A C76A U78C G92A
A41C C43U C87G G100A U127G G143A
A41C C51U G59A C63U C79U G86U C123U G143C
A41C C54G U77A A91G C105G G126A G136A A137G
A41C C57U A115C C125U G133U U139A A142C
A41C C85U C96A C105G C125U
A41C C95A C103G U144A
A41C G42A G92A A115G U151G
A41C G48A C99G C114G
A41C G50C A66C A91G A97G G140U
A41C G58A G70C C76U A91C
A41C G58U U77C C93G
A41C G59U C85A C93U
A41C G62C C87G A110C A113U A122G G136U
A41C G65A G68A U101A U130G
A41C G70A U77G G84A C87U A110G A113G G136A
A41C G74A C79A A97C A119C
A41C G74A G84U C99G A119U U144C
A41C G84U A89G U102G A142G
A41C G86A A107C G136C U139G
A41C G86A C99G
A41C G88U C96G C103A
A41C U44G G59C A73G C93U
A41C U55G C87G A120G U127A
A41C U78C C87U G94A C99G
A41G A52C C85G A91U G128C
A41G C54A U55G A73C G88U
A41G C54A U77C C93G C108U G143A
A41G C54U G67C C85U U102G C118U G141U
A41G C76A G80U C96U C114U U145A
A41G C79G G81C A120G A150C
A41G C87A
A41G C87A A106U G140C G141U U146C
A41G G42C U78A C87U U127G G143A U145A
A41G G42U A73U C76U U78C C85G C95U A119C U127A U145A
A41G G48U A52C G88A C99U G136A G143C
A41G G50C C75A G84A C125A G140C A142G
A41G G58A U90G C125U G141U
A41G G68A C72U G81A A98U G143U
A41G G71C G94A C108A A150C
A41G G74A U111C
A41G G83A C105A C132G A150U
A41G U44A C51U C87U A106U A107G
A41G U44A C54U C105A A106G
A41G U44A U61A A89G G92C C96U
A41G U45A A64U C79U C99A A122G
A41G U45A C87A U109G C125G U151A
A41U A49C C54A C57G A64U G81C C85U C93G
A41U A49C G86A G143U
A41U A52U U61A C95U C108A
A41U A60U G83C C95U
A41U A73G G83A U144G A150G
A41U A113U G124C
A41U C43U U56A U61A C116A
A41U C51U G83C C96U A142U
A41U C69U C87U C149A
A41U C76A C87A C108U
A41U C93A C95U G140U A147U
A41U G42A C79G G83U U101C U148A A150U
A41U G50A C69A G83U
A41U G59A G86C C96U A113G
A41U G59C C76A C85G C103A
A41U U44C G59A U145C
A41U U55G U82G C96U A98C A138U
G42A A47C C96U C105G G140A C149G
G42A A47U C51U A60U G83U C99G C131A U146G
G42A A49C C54U A106C C114G G141C
G42A A49U A52C U82A A106G
G42A A49U A60G G124C
G42A A49U A73U A91C G124C G136U U148A A150G
G42A A52C C131G
G42A A60C C85A C114U
G42A A60U C95U U144C
G42A A66C C95U G126U
G42A A89U C93U G94C
G42A C43G G84A U104A U144G
G42A C51G C76G C93U U104G C118U
G42A C51U G80C C103G A106C C125U C132A
G42A C54G C95U
